We go through 2 compounds from patent publication EP0021685A1, “A-30912 H-type antibiotics, their preparation and use” (ELI LILLY AND COMPANY, priority 1979, dated 1981).

The subject of this assay is Candida albicans. Nature of the assay: Disc-diffusion antifungal test. To be noted: pads dipped in solutions containing 10 mg/ml of test compound. On the procedure:
The A-30912H-type antibiotics are antifungal agents which are especially active against Candida species. This invention relates further, therefore, to a method of treating fungal infections in mammals which comprises administering to the mammal an effective amount of an A-30912H-type antibiotic. In these tests the antifungal activity was measured by the disc-diffusion method (6-mm pads were dipped in solutions containing test compounds; pads were placed on agar plates seeded with the test organism). Table III gives the minimal inhibitory concentration (MIC) per disc at which A-30912H inhibited the test organism.
Table IV gives the diameters (in mm) of the observed zones of inhibition for typical A-30912H-type derivatives. The test compounds were compounds of formula I wherein R^1 is linoleoyl; the pads were (dipped in solutions containing 10 mg/ml of test compound).
(In general: Agar diffusion results depend on both activity and mobility in agar.)

Consider `CCCCC/C=C\C/C=C\CCCCCCCC(=O)N[C@H]1C[C@@H](O)[C@@H](OCCCCCC)NC(=O)[C@@H]2[C@@H](O)[C@@H](C)CN2C(=O)[C@H]([C@@H](C)O)NC(=O)[C@H]([C@H](O)[C@@H](O)c2ccc(O)cc2)NC(=O)[C@@H]2C[C@@H](O)CN2C(=O)[C@H]([C@@H](C)O)NC1=O` [R = n-hexyl], for which the “Zone diameters (mm)” value turned out to be 14 mm.

For `CCCCC/C=C\C/C=C\CCCCCCCC(=O)N[C@H]1C[C@@H](O)[C@@H](OCCC)NC(=O)[C@@H]2[C@@H](O)[C@@H](C)CN2C(=O)[C@H]([C@@H](C)O)NC(=O)[C@H]([C@H](O)[C@@H](O)c2ccc(O)cc2)NC(=O)[C@@H]2C[C@@H](O)CN2C(=O)[C@H]([C@@H](C)O)NC1=O` [R = n-propyl], the “Zone diameters (mm)” value is reported as 16 mm.
